Among the data in article PMC12820563, “FoxP3 forms a head-to-head dimer in vivo and stabilizes its multimerization on adjacent microsatellites” are binding signal values, retold here.

The list shows a part of the results.

This assay addresses T1, MBP-FoxP1dN (Mus musculus, UniProt P58462 326-579).
T1 sequence: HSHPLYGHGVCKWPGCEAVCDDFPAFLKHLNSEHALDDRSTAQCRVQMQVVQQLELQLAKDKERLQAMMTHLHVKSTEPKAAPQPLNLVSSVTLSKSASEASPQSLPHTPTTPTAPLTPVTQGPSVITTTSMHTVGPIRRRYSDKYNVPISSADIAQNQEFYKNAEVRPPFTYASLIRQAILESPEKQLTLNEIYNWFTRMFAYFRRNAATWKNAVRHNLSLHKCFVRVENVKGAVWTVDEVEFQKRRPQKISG
The assay can be described thus: PD-seq (MBP pull-down with sequencing); 20 mM Tris-HCl pH 7.5, 100 mM NaCl, 1.5 mM MgCl2, 0.4 uM protein, 0.1 uM dsDNA library, 30 min, room temperature, amylose pull-down; high values mean tight binding. The settings on record: protein: recombinant; tags: His6-MBP; chain copies: 2; dsDNA, one strand shown. The essentials: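 A degenerate double-stranded DNA library, filled in with Klenow, was added at 0.1 µM to 0.4 µM His6-MBP-tagged mouse FoxP3 or FoxP1 fragment lacking the N-terminus, expressed in E. coli. Incubation lasted 30 min at room temperature in Tris pH 7.5 buffer with NaCl and MgCl2, after which complexes were collected on amylose resin, washed three times, digested with proteinase K to free the DNA, barcoded by PCR and sequenced by Illumina. Binding is the pooled-replicate reads-per-million enrichment of pull-down over input.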
“GATGATTGTTCTCCCAGCTGATGAATTCGAGGGTTCGAGTAAACAAATTTTCCTAATCTTTCTGTTCAAGCGCCATCTAC”: the binding signal was 0.844 RPM ratio (pull-down/input).

“GATGATTGTTCTCCCAGCTGATGAATTCGTACGCTCGAGTAAACAAATTTTCCTAATCTTTCTGTTCAAGCGCCATCTAC”: the binding signal is 0.894 RPM ratio (pull-down/input).

Consider “GATGATTGTTCTCCCAGCTGATGAATTACTCCAGTCGAGTAAACAAATTTTCCTAATCTTTCTGTTCAAGCGCCATCTAC”, for which the binding signal was 1.03 RPM ratio (pull-down/input).

With “GATGATTGTTCTCCCAGCTGATGAATTACGGAATTCGAGTAAACAAATTTTCCTAATCTTTCTGTTCAAGCGCCATCTAC”, the binding signal was 1 RPM ratio (pull-down/input).

Turning to “GATGATTGTTCTCCCAGCTGATGAATTATTTGATTCGAGTAAACAAATTTTCCTAATCTTTCTGTTCAAGCGCCATCTAC”, the binding signal was 1.05 RPM ratio (pull-down/input).

Consider “GATGATTGTTCTCCCAGCTGATGAATTTTTCACGTCGAGTAAACAAATTTTCCTAATCTTTCTGTTCAAGCGCCATCTAC”, for which the binding signal was 0.902 RPM ratio (pull-down/input).

For the sequence “GATGATTGTTCTCCCAGCTGATGAATTTATTGTGTCGAGTAAACAAATTTTCCTAATCTTTCTGTTCAAGCGCCATCTAC”, the binding signal was 1.88 RPM ratio (pull-down/input).

Consider “GATGATTGTTCTCCCAGCTGATGAATTTATCCGTTCGAGTAAACAAATTTTCCTAATCTTTCTGTTCAAGCGCCATCTAC”, for which the binding signal is 1.12 RPM ratio (pull-down/input).

As for “GATGATTGTTCTCCCAGCTGATGAATTATGTAACTCGAGTAAACAAATTTTCCTAATCTTTCTGTTCAAGCGCCATCTAC”, the binding signal is 1.15 RPM ratio (pull-down/input).

As to “GATGATTGTTCTCCCAGCTGATGAATTATGCGGGTCGAGTAAACAAATTTTCCTAATCTTTCTGTTCAAGCGCCATCTAC”, the binding signal is 0.927 RPM ratio (pull-down/input).

On to “GATGATTGTTCTCCCAGCTGATGAATTTGCTACTTCGAGTAAACAAATTTTCCTAATCTTTCTGTTCAAGCGCCATCTAC”, for which the binding signal was 1.09 RPM ratio (pull-down/input).

For “GATGATTGTTCTCCCAGCTGATGAATTTCAGAGTTCGAGTAAACAAATTTTCCTAATCTTTCTGTTCAAGCGCCATCTAC”, the binding signal is 0.735 RPM ratio (pull-down/input).

As to “GATGATTGTTCTCCCAGCTGATGAATTATGTGGATCGAGTAAACAAATTTTCCTAATCTTTCTGTTCAAGCGCCATCTAC”, the binding signal is 1.08 RPM ratio (pull-down/input).

In the case of “GATGATTGTTCTCCCAGCTGATGAATTCCCTCAATCGAGTAAACAAATTTTCCTAATCTTTCTGTTCAAGCGCCATCTAC”, the binding signal was 0.866 RPM ratio (pull-down/input).

Consider “GATGATTGTTCTCCCAGCTGATGAATTTCAGATGTCGAGTAAACAAATTTTCCTAATCTTTCTGTTCAAGCGCCATCTAC”, for which the binding signal was 0.87 RPM ratio (pull-down/input).

As for “GATGATTGTTCTCCCAGCTGATGAATTTCCTCTATCGAGTAAACAAATTTTCCTAATCTTTCTGTTCAAGCGCCATCTAC”, the binding signal is 0.876 RPM ratio (pull-down/input).

With “GATGATTGTTCTCCCAGCTGATGAATTCTATGAGTCGAGTAAACAAATTTTCCTAATCTTTCTGTTCAAGCGCCATCTAC”, the binding signal is 0.887 RPM ratio (pull-down/input).

With “GATGATTGTTCTCCCAGCTGATGAATTACGAGATTCGAGTAAACAAATTTTCCTAATCTTTCTGTTCAAGCGCCATCTAC”, the binding signal was 0.943 RPM ratio (pull-down/input).

For the sequence “GATGATTGTTCTCCCAGCTGATGAATTTATCGTCTCGAGTAAACAAATTTTCCTAATCTTTCTGTTCAAGCGCCATCTAC”, the binding signal is 1.17 RPM ratio (pull-down/input).

Turning to “GATGATTGTTCTCCCAGCTGATGAATTAGTGGAGTCGAGTAAACAAATTTTCCTAATCTTTCTGTTCAAGCGCCATCTAC”, the binding signal is 0.894 RPM ratio (pull-down/input).

For “GATGATTGTTCTCCCAGCTGATGAATTGGTGCAATCGAGTAAACAAATTTTCCTAATCTTTCTGTTCAAGCGCCATCTAC”, the binding signal was 1.22 RPM ratio (pull-down/input).

On to “GATGATTGTTCTCCCAGCTGATGAATTACTGCGGTCGAGTAAACAAATTTTCCTAATCTTTCTGTTCAAGCGCCATCTAC”, for which the binding signal is 0.866 RPM ratio (pull-down/input).

Take “GATGATTGTTCTCCCAGCTGATGAATTCATCATGTCGAGTAAACAAATTTTCCTAATCTTTCTGTTCAAGCGCCATCTAC”: the binding signal is 0.907 RPM ratio (pull-down/input).

As to “GATGATTGTTCTCCCAGCTGATGAATTATACTCGTCGAGTAAACAAATTTTCCTAATCTTTCTGTTCAAGCGCCATCTAC”, the binding signal is 0.984 RPM ratio (pull-down/input).

For “GATGATTGTTCTCCCAGCTGATGAATTGACGCGGTCGAGTAAACAAATTTTCCTAATCTTTCTGTTCAAGCGCCATCTAC”, the binding signal is 1.01 RPM ratio (pull-down/input).

Consider “GATGATTGTTCTCCCAGCTGATGAATTGTGTATGTCGAGTAAACAAATTTTCCTAATCTTTCTGTTCAAGCGCCATCTAC”, for which the binding signal was 1.62 RPM ratio (pull-down/input).

Turning to “GATGATTGTTCTCCCAGCTGATGAATTCTCTGAGTCGAGTAAACAAATTTTCCTAATCTTTCTGTTCAAGCGCCATCTAC”, the binding signal was 0.731 RPM ratio (pull-down/input).

For the sequence “GATGATTGTTCTCCCAGCTGATGAATTATAAATATCGAGTAAACAAATTTTCCTAATCTTTCTGTTCAAGCGCCATCTAC”, the binding signal was 2.01 RPM ratio (pull-down/input).

For the sequence “GATGATTGTTCTCCCAGCTGATGAATTCGCGGGGTCGAGTAAACAAATTTTCCTAATCTTTCTGTTCAAGCGCCATCTAC”, the binding signal is 0.823 RPM ratio (pull-down/input).

For “GATGATTGTTCTCCCAGCTGATGAATTTACTCGATCGAGTAAACAAATTTTCCTAATCTTTCTGTTCAAGCGCCATCTAC”, the binding signal is 1.31 RPM ratio (pull-down/input).

In the case of “GATGATTGTTCTCCCAGCTGATGAATTGTGCGGATCGAGTAAACAAATTTTCCTAATCTTTCTGTTCAAGCGCCATCTAC”, the binding signal is 0.959 RPM ratio (pull-down/input).

In the case of “GATGATTGTTCTCCCAGCTGATGAATTGCGTTGTTCGAGTAAACAAATTTTCCTAATCTTTCTGTTCAAGCGCCATCTAC”, the binding signal is 1.24 RPM ratio (pull-down/input).
